The supplement of paper PMC9151546
Most values come without repeats; read them as rough.

Columns and labels:
CHO-K1 [1] = assay: hypodiploid nuclei frequency (% of nucleated events); higher = more hypodiploid events (aneugenic)
Procedure: (§1)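 Flow-cytometric in vitro micronucleus assay (Litron MicroFlow) in CHO-K1 cells in 96-well plates, 19 concentrations (4.5-200 µM, n=1 per concentration). Without S9, cells were exposed for 24 h and sampled at 48 h. With Aroclor 1254-induced rat liver S9, cells were exposed for 3-4 h and sampled at 27-28 h. Read-outs are %MN and %hypodiploid nuclei relative to nucleated events, and relative survival as the nuclei-to-bead ratio versus the 1% DMSO vehicle control (x100).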

CHO-K1 [2] = assay: relative survival (nuclei to bead ratio vs DMSO control) (% of vehicle control); higher = more surviving cells
Procedure: as §1

CHO-K1 [3] = assay: micronucleus frequency (% of nucleated events); higher = more micronuclei (genotoxic)
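Wherever hypodiploid nuclei frequency (% of nucleated events) is given: hypodiploid nuclei gated on a flow cytometer with 488 nm excitation after SYTOX Green staining, cultures at 37 °C, positive controls vinblastine without S9 and cyclophosphamide with S9.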
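Wherever micronucleus frequency (% of nucleated events) is given: cells lysed with nuclei stained by SYTOX Green, then micronucleus-gated events counted against nucleated events by flow cytometry with 488 nm excitation.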
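Wherever relative survival (nuclei to bead ratio vs DMSO control) is given: Lysed-cell nuclei stained with SYTOX Green and counted against counting beads by flow cytometry at 488 nm excitation, with vinblastine (no S9) and cyclophosphamide (plus S9) as positive controls.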

COC(=O)c1ccccc1O [Methyl salicylate]
Settings	hypodiploid nuclei frequency, CHO-K1 [1] [%]	micronucleus frequency, CHO-K1 [3] [%]	relative survival, CHO-K1 [2]
concentration: 4.5 (µM), S9 metabolic activation: with S9, exposure time: 3-4 hours	0.28	0.94	102
concentration: 4.5 (µM), S9 metabolic activation: without S9, exposure time: 24 hours	0.6	1.4	103
concentration: 5.63 (µM), S9 metabolic activation: with S9, exposure time: 3-4 hours	0.16	1.18	94.1
concentration: 5.63 (µM), S9 metabolic activation: without S9, exposure time: 24 hours	0.68	1.18	106
concentration: 7.04 (µM), S9 metabolic activation: with S9, exposure time: 3-4 hours	0.12	1.08	93.1
concentration: 7.04 (µM), S9 metabolic activation: without S9, exposure time: 24 hours	0.52	1.3	113
concentration: 8.8 (µM), S9 metabolic activation: with S9, exposure time: 3-4 hours	0.18	1.22	101
concentration: 8.8 (µM), S9 metabolic activation: without S9, exposure time: 24 hours	0.64	1.14	103
concentration: 11 (µM), S9 metabolic activation: with S9, exposure time: 3-4 hours	0.24	0.96	113
concentration: 11 (µM), S9 metabolic activation: without S9, exposure time: 24 hours	0.98	1.94	102
concentration: 13.7 (µM), S9 metabolic activation: with S9, exposure time: 3-4 hours	0.24	0.96	113
concentration: 13.7 (µM), S9 metabolic activation: without S9, exposure time: 24 hours	0.72	1.64	101
concentration: 17.2 (µM), S9 metabolic activation: with S9, exposure time: 3-4 hours	0.24	1.02	115
concentration: 17.2 (µM), S9 metabolic activation: without S9, exposure time: 24 hours	0.7	1.56	113
concentration: 21.5 (µM), S9 metabolic activation: with S9, exposure time: 3-4 hours	0.22	0.7	94.6
concentration: 21.5 (µM), S9 metabolic activation: without S9, exposure time: 24 hours	0.88	2.26	111
concentration: 26.8 (µM), S9 metabolic activation: with S9, exposure time: 3-4 hours	0.28	0.92	110
concentration: 26.8 (µM), S9 metabolic activation: without S9, exposure time: 24 hours	0.68	1.88	111
concentration: 33.6 (µM), S9 metabolic activation: with S9, exposure time: 3-4 hours	0.3	1.18	120
concentration: 33.6 (µM), S9 metabolic activation: without S9, exposure time: 24 hours	0.94	1.96	118
concentration: 41.9 (µM), S9 metabolic activation: with S9, exposure time: 3-4 hours	0.32	1.54	89.4
concentration: 41.9 (µM), S9 metabolic activation: without S9, exposure time: 24 hours	0.74	1.72	93.9
concentration: 52.4 (µM), S9 metabolic activation: with S9, exposure time: 3-4 hours	0.16	1.16	91.8
concentration: 52.4 (µM), S9 metabolic activation: without S9, exposure time: 24 hours	0.84	2.42	134
concentration: 65.5 (µM), S9 metabolic activation: with S9, exposure time: 3-4 hours	0.44	1.3	93.6
concentration: 65.5 (µM), S9 metabolic activation: without S9, exposure time: 24 hours	1.1	2.12	88
concentration: 81.9 (µM), S9 metabolic activation: with S9, exposure time: 3-4 hours	0.26	1.56	93.6
concentration: 81.9 (µM), S9 metabolic activation: without S9, exposure time: 24 hours	1.28	2.92	94.3
concentration: 102 (µM), S9 metabolic activation: with S9, exposure time: 3-4 hours	0.26	1.78	109
concentration: 102 (µM), S9 metabolic activation: without S9, exposure time: 24 hours	1.68	3.52	86.1
concentration: 128 (µM), S9 metabolic activation: with S9, exposure time: 3-4 hours	0.4	2.3	103
concentration: 128 (µM), S9 metabolic activation: without S9, exposure time: 24 hours	1.42	2.04	86.5
concentration: 160 (µM), S9 metabolic activation: with S9, exposure time: 3-4 hours	0.64	2.82	119
concentration: 160 (µM), S9 metabolic activation: without S9, exposure time: 24 hours	1.64	1.86	93.4
concentration: 200 (µM), S9 metabolic activation: with S9, exposure time: 3-4 hours	0.32	1.56	117
concentration: 200 (µM), S9 metabolic activation: without S9, exposure time: 24 hours	1.58	1.94	81.8
